# From the RNAGym collection of RNA variant scans (doi:10.1093/nar/gkz1192)
# The source gives no read counts; variants with many changes may rest on few reads.
# B1: CPEB3 Ribozyme (parent)
# chain: UAACAGGGGGCCACAGCAGAAGCGUUCACGUCGCAGCCCCUGUCAGAUUCUGGUGAAUCUGCGAAUUCUGCUGUAUAUCUC
# Variants of: B1
# Test: self-cleavage, relative activity (ratio to wild type); higher = more cleavage; in vitro, sequencing
# Summary of the method: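 Libraries of CPEB3 self-cleaving ribozyme mutants came from rounds of error-prone PCR and carried barcodes, which DNA sequencing matched to variants. In vitro transcription used T7 RNA polymerase at 37°C for 5 hours, with a further 15 min in DNase I before EDTA stopped the reaction; the ribozymes cleaved during both steps. The RNA was reverse transcribed with template switching and sequenced on Illumina. Relative activity is the cleaved/total read fraction of a variant divided by that of the unmutated ribozyme, averaged over three batches with at least 5 reads.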
row,Variant,self-cleavage
1,A5G G42U U49C U60A U67C U72A,0.05
2,A5G C12A A15U A21G A45G U67C A77U,0.08
3,A5G C29U A56G U78C,0.5
4,A5G A15U A20G U41G,0.09
5,A5G G19A G73U,0.53
6,A5G G7A A13G A20G,0.5
7,A5G A21G U26C C34A C39U G52A A77G,0.27
8,A5G C12U G46A A56G,0.07
9,A5G A13U U51C,0.72
10,A5G G7A A13G A35G A45G,0.12
11,A5G G24A A47G A56G U66A,0.12
12,A5G A13U A21G U26C,0.19
13,A5G A45G U67C U78G,0.16
14,A5G A20G U51A A64U U69C,0.22
15,A5G A18G U69C,0.83
16,A5G G10A U25G C27U,0.32
17,A5G U26G U43G U66C A77U U78C,0.08
18,A5G A18G A20G U49A,0.45
19,A5G A15U A35G U41A G70C,0.12
20,A5G A13U A21U U60C,0.09
21,A5G A13G G22U U69C,0.5
22,A5G A45U U69G,0.29
23,A5G A15U A57G,0.19
24,A5G A56G C59G C62U,0.26

row,Variant,self-cleavage
1,A5G A13U A28G U31C,0.36
2,A5G A15G A35U C62U U78C,0.1
3,A5G G6A A20G C34A A57G,0.07
4,A5G A20G U43C,0.11
5,A5G A13U A45G A47G,0.4
6,A5G A35G U41C A45U U74C,1.11
7,A5G C27U U31C U51G A57G A77U,0.06
8,A5G A18G U26A U66C,0.25
9,A5G A15U A35G U78C,1.12
10,A5G U26C C38U A64G,0.23
11,A5G A13G U80C,0.58
12,A5G A35G U51C U67A U72C U80C,0.25
13,A5G A15G U41C U78A,0.54
14,A5G A18G U43C A45U U48A,0.27
15,A5G G22A A35G C39U A57G,0.06
16,A5G C14G U41A U43C U60C U66C,0.13
17,A5G G7C C12G A77U,0.07
18,A5G G9A U49C A56G,0.26
19,A5G A15U A35G G70C,0.41
20,A5G G10U C23G U54C U76A,0.17
21,A5G A28U A35G A64G,1.12
22,A5G U26C A45U U48A U78C,0.53
23,A5G C12G U60C U80C,0.09
24,A5G A15G C23G U43A A64U U69G A77U,0.06

row,Variant,self-cleavage
1,A5G A20G U26A A28G G30A,0.28
2,A5G C23U A28G C29A A35U U54C G55U,0.12
3,A5G G10A A15G U25G U54A,0.08
4,A5G C23U U25C A35G U43C A56U,0.26
5,A5G A45U C68A C81A,0.1
6,A5G C40U U48C,0.47
7,A5G A21G A35G A45U U48C U66C U78C,0.1
8,A5G A28U A57G,0.18
9,A5G C38U U78C,0.27
10,A5G G7U G9C G16C U43A U66C U78A,0.06
11,A5G G10A A21G A65G U72C,0.08
12,A5G A57G A64G,0.78
13,A5G A13G U26C A28G C59G U80A,0.31
14,A5G U25C C59A C62U U80A,0.33
15,A5G A18G U54A U72A U76C U80A,0.48
16,A5G A15G U26C U67C U72C U76A U80A,0.04
17,A5G G24A U66A U80A C81U,0.24
18,A5G A28U U31A U72C,0.14
19,A5G C17U U25C A35G A64U U72C,0.18
20,A5G A15G A28G A47U,0.33
21,A5G A15G A57G U66C,0.11
22,A5G A28U G42A A47G A77G,0.05
23,A5G A57G A64G U67C U72C A75G,0.2
24,A5G U25C U66A,0.14

row,Variant,self-cleavage
1,A5G A28U U78C,0.69
2,A5G A13G U41A A57G U66C U72C,0.13
3,A5G U25A G30A U31G C32U U78A,0.31
4,A5G U26C U31C A47G,0.65
5,A5G G7C G10A A13U A15G U67C U74C,0.09
6,A5G G7U U60C U72C,0.05
7,A5G A13U A15G U54C,0.52
8,A5G A28U U72A,0.36
9,A5G U31C U41A A47U A75U U78C,0.05
10,A5G A20G U48C A64U U76C,0.12
11,A5G A13G A56U,0.27
12,A5G A13G U26A A28G A35U,0.06
13,A5G A15G G30A U76C,0.13
14,A5G G7C G10C A35C U48C,0.35
15,A5G A35U U51G,0.19
16,A5G A13U A15G U25A A45G U58C,0.14
17,A5G A20U U51C,0.34
18,A5G A20U U25C U31A U49G C81U,0.08
19,A5G A15C A45U,0.47
20,A5G G10C U26G A28G A35G U51A A77G,0.06
21,A5G A21G A45U U51A,0.22
22,A5G U26C U48A U51A,0.45
23,A5G A21G C68A U69G,0.14
24,A5G A18C A35U U72C A75G U78A,0.17

row,Variant,self-cleavage
1,A5G U26C G33U U43A U78C U80A,0.1
2,A5G G22A U41A,0.3
3,A5G A47G U58A,0.21
4,A5G C34U U41A,0.25
5,A5G A28G A35G,0.71
6,A5G U25C A35U,0.28
7,A5G A15G A56G A75U,0.39
8,A5G A15U U80A,0.17
9,A5G U26C A35G U49C U60C,0.31
10,A5G G33A A45G U58A U60C A64G U80A,0.07
11,A5G A35C A56G,0.4
12,A5G C11U U25C,0.33
13,A5G A47G U60G,0.54
14,A5G A20G U41C U74A,0.39
15,A5G U26C U54C U60C C79A,0.11
16,A5G A15U C23U A35G U60C U67C,0.24
17,A5G A20C C32G A35G U41G U72A U74C,0.17
18,A5G C14U C40U,0.39
19,A5G A21G U48C A57U A77G,0.24
20,A5G A56U U72A,0.16
21,A5G U31A C40U U49C,0.12
22,A5G G22A G53A A65G,0.16
23,A5G A15C A21U U41C U60A,0.89
24,A5G U26C C37U U51A,0.18

row,Variant,self-cleavage
1,A5G U25C C39A,0.1
2,A5G G9C U25C A35G U69C,0.06
3,A5G G53A U54C U60C U76C,0.1
4,A5G A13G U76A,0.5
5,A5G A15G A20G U54A U76C A77U,0.6
6,A5G A28G U43C A45G U72C,0.67
7,A5G A13U C68U U72A,0.42
8,A5G C14U U26C,0.47
9,A5G A15G G24A,0.53
10,A5G C38A U78C,0.32
11,A5G A15C C62U,0.58
12,A5G A35G U49A U58A,0.37
13,A5G G10U U54C G63U U78C,0.36
14,A5G A64U U80A,0.61
15,A5G A13G U25A U66A,0.08
16,A5G A15U U60C G63A U72A A75G,0.21
17,A5G G9C A20U U41C U76A,0.09
18,A5G C62A U72G,0.22
19,A5G A45G U48A U51C,0.48
20,A5G G8A G61C,0.09
21,A5G G7A U54A A56G U69C,0.14
22,A5G A20G U48A U49C A57G,0.34
23,A5G U25A U41C U43C A57G,0.55
24,A5G A13G U31C C38A U49C G63U,0.07

row,Variant,self-cleavage
1,A5G G30A U80C,0.55
2,A5G A13G G42U,0.41
3,A5G U26G C34U G55A A57G U58A,0.08
4,A5G G22A U26A G63A,0.08
5,A5G A75U A77G,0.59
6,A5G G8A A15G C71U,0.14
7,A5G G33A A35C G52A U60A C68U,0.08
8,A5G A35U U43A G63U,0.33
9,A5G A15G U66C,0.58
10,A5G A56G U69C,0.26
11,A5G G6U A35G A56G,0.65
12,A5G A15G A28G U80A,0.93
13,A5G A20U A35G U60C,0.26
14,A5G A45G U54C U69C,0.22
15,A5G U25C U54C U72A U80C,0.11
16,A5G A13C U60C U66C,0.25
17,A5G A28U U76A A77U,0.48
18,A5G U25C A56G U66C,0.37
19,A5G G7U A75G,0.33
20,A5G A64G U69C,0.16
21,A5G A28G A64G U76C,0.41
22,A5G G7U U31C U72C,0.04
23,A5G A18G A21U A64U,0.1
